{
  "source": "the supplement of paper PMC7826260",
  "note": "Some of the results follow. One pool of 16,384 single-stranded DNAs met each Rep nickase domain in vitro at 3 µM enzyme and 37 °C for 1 h; the strands have 90 letters, of which the middle is given. A value is the log2 ratio of uncut reads to the pool without enzyme; strong cutting gives strongly negative numbers. There is no active / inactive call. Reads are scaled to the total; uncut strands gain when others are lost, and binding without cutting may add a little.",
  "data": [
    {"tested_on": "T1, Rep nickase domain of tomato golden mosaic virus", "T1 sequence (residues 1-124 of Rep, tag left off)": "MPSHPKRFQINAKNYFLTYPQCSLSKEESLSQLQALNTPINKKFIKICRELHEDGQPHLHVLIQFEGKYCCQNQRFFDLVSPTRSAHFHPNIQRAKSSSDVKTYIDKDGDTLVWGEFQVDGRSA", "assay": "uncleaved DNA left, log2 of reads against the no-enzyme library (log2 ratio); higher = less cleavage (more negative = more Rep cleavage of the k-mer); sequences stand for … in CTCGTCCG…ACCGGAGA", "method": "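A pool of 90-nt single-stranded DNAs with seven random bases just before the constant AC of the nick site (name = the seven bases) was cut by 3 µM recombinant His6-SUMO-tagged Rep nickase domain (300 nM DNA, 50 mM HEPES pH 8.0, 50 mM NaCl, 1 mM MnCl2, 1 h, 37 °C, three replicates). Uncut DNA was amplified and sequenced.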", "values": [
      {"sequence": "TTAAGTA", "uncleaved DNA left (log2)": -0.00953},
      {"sequence": "CCATCAT", "uncleaved DNA left (log2)": 0.0289},
      {"sequence": "TGGTACC", "uncleaved DNA left (log2)": -0.241},
      {"sequence": "TTCACCA", "uncleaved DNA left (log2)": -0.0112},
      {"sequence": "CGCGCCT", "uncleaved DNA left (log2)": -0.178},
      {"sequence": "TAATTCC", "uncleaved DNA left (log2)": -3.58},
      {"sequence": "TACACGA", "uncleaved DNA left (log2)": -0.018},
      {"sequence": "ATCGAGT", "uncleaved DNA left (log2)": 0.109},
      {"sequence": "CGAGCGT", "uncleaved DNA left (log2)": 0.155},
      {"sequence": "AGTTCGG", "uncleaved DNA left (log2)": 0.104},
      {"sequence": "TCAGGGA", "uncleaved DNA left (log2)": 0.108},
      {"sequence": "AACTCGG", "uncleaved DNA left (log2)": 0.176},
      {"sequence": "ACCTCTG", "uncleaved DNA left (log2)": -0.0954},
      {"sequence": "TTGCACA", "uncleaved DNA left (log2)": 0.0147},
      {"sequence": "GTAATAG", "uncleaved DNA left (log2)": -0.0639},
      {"sequence": "GAATCTG", "uncleaved DNA left (log2)": 0.0667},
      {"sequence": "GCGTGAC", "uncleaved DNA left (log2)": 0.0328},
      {"sequence": "AAAACGT", "uncleaved DNA left (log2)": 0.0569},
      {"sequence": "AGGCTGA", "uncleaved DNA left (log2)": 0.0188},
      {"sequence": "GCCGGCG", "uncleaved DNA left (log2)": 0.162},
      {"sequence": "AGAAATG", "uncleaved DNA left (log2)": 0.066},
      {"sequence": "GCTAGCG", "uncleaved DNA left (log2)": -0.00613},
      {"sequence": "CCGCGGG", "uncleaved DNA left (log2)": 0.148},
      {"sequence": "AAGCAGA", "uncleaved DNA left (log2)": 0.204},
      {"sequence": "TACGGGT", "uncleaved DNA left (log2)": 0.0124},
      {"sequence": "ACAGGAG", "uncleaved DNA left (log2)": 0.27},
      {"sequence": "ATAGATC", "uncleaved DNA left (log2)": -0.0227},
      {"sequence": "ACCTCGG", "uncleaved DNA left (log2)": 0.0858},
      {"sequence": "TCGATAC", "uncleaved DNA left (log2)": -0.0394},
      {"sequence": "AAGTAAG", "uncleaved DNA left (log2)": 0.0794},
      {"sequence": "AGCTATC", "uncleaved DNA left (log2)": -0.00157},
      {"sequence": "GTACGTT", "uncleaved DNA left (log2)": -0.126},
      {"sequence": "TCGCGCG", "uncleaved DNA left (log2)": -0.13},
      {"sequence": "AGTGTAT", "uncleaved DNA left (log2)": 0.0682},
      {"sequence": "TCCACTT", "uncleaved DNA left (log2)": -0.145},
      {"sequence": "GTCGTTC", "uncleaved DNA left (log2)": 0.0106},
      {"sequence": "GGATGGG", "uncleaved DNA left (log2)": -0.0666},
      {"sequence": "GTATTTA", "uncleaved DNA left (log2)": 0.112},
      {"sequence": "CTGTAGT", "uncleaved DNA left (log2)": 0.0907},
      {"sequence": "ATGAACT", "uncleaved DNA left (log2)": 0.0594}
    ]}
  ]
}
